Reference: patent publication US20150183864A1 (KOREA ADVANCED INSTITUTE OF SCIENCE AND TECHNOLOGY KAIST, published 2015)

Assays:
[1] = target: T1, VEGF-A165 (produced from CHO cell) (UniProt P15692-4 27-191); assay: SPR, BIAcore 3000, VEGF-A immobilized on CM5 chip
T1 sequence (looked up): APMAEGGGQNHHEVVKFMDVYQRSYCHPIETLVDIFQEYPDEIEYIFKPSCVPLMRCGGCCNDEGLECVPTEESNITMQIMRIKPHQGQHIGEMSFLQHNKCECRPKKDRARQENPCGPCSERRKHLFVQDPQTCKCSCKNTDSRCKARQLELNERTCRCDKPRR

[2] = target: T2, TNF-α (R&D Cat#210-TA/CF) (UniProt P01375 in part); assay: SPR, BIAcore 3000, TNF-α immobilized on CM5 chip
T2 construct: Bought recombinant protein; also called TNF-alpha; tumor necrosis factor alpha
T2 sequence (P01375 77-233 limits assumed): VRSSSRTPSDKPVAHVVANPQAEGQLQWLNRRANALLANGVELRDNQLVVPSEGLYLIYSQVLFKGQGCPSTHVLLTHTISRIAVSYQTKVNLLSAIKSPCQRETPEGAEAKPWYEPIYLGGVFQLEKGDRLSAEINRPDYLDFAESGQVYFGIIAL

B1: Valpha recombinant protein (Valpha FV#1: Mbd-TNFR2, Ig2 of VEGFR1 and human IgG Fc portion in order) (Fc fusion)
chain: LPAQVAFTPYAPEPGSTCRLREYYDQTAQMCCSKCSPGQHAKVFCTKTSDTVCDSCEDSTYTQLWNWVPECLSCGSRCSSDQVETQACTREQNRICTCRPGWYCALSKQEGCRLCAPLRKCRPGFGVARPGTETSDVVCKPCAPGTFSNTTSSTDICRPHQICNVVAIPGNASMDAVCTSTSPTRSMAPGAVHLPQPVSTRSQHTQPTPEPSTAPSTSFLLPMGPSPPAEGSTGDGRPFVEMYSEIPEIIHMTEGRELVIPCRVTSPNITVTLKKFPLDTLIPDGKRIIWDSRKGFIISNATYKEIGLLTCEATVNGHLYKTNYLTHRQLE[human IgG1 Fc not shown]
notes: Produced in CHO cells; also called double anti-inflammation-angiogenesis protein targeting both VEGF-A and TNF-alpha
With B1 the Kd [1] was 6.54 pM and the Kd [2] was 0.641 nM.
